# Results published in the supplement of paper PMC8674133.
# Where a chain is given by its changes, count along the chain named. Recombinant human monoclonal antibodies (heavy:light variable regions). ELISA EC50 on the named antigen, from 10 µg/ml down; IC50 / IC90 against spike pseudovirus on 293T-ACE2 cells, 48 h; lower = stronger. Calls: IC50 above 1,000 ng/ml = non-neutralizing; EC50 above 2,000 ng/ml = non-binder. The source prints 1000 for neutralization that was not reached; it is given as >1000 ng/ml. A few antibodies were first reported in earlier work of the same group.
# B1: C1395 (protein)
# chain 1: QVQLQESGPGLMKPSQTLSLTCSVSGDSIRSGNNHWSWIRQPAGKGLEWIGRVYMSGDTHYNPSLKSRVTISVDTSKNHFSLKLSSVTAADTAVYYCTRGLRFLDYPVLDVWGTGTTVTVSS
# chain 2: SYELTQPPSVSVAPGQTARITCGGNNIGSKSVHWFQLKPGQAPVLVVYDNSDRPSGIPERFSGSNSGNTATVTISRVEAGDEADYCCQVWDSSSDHPVFGGGTKLTVL
# B2: C1298 (protein)
# chain 1: EVQLVESGGGLVQPGGSLRLSCAASGFTFSIYDMHWVRQATGKGLEWVSTIGTASDAYYPDSVKGRFTISRENAKNSLYLQMNSLRAGDTAVYYCARGGRGYKYGNWYFDLWGRGTLVTVSS
# chain 2: DIQLTQSPSSLSASVGDRVTITCRASQSISSFLNWYQQKPGKAPKLLIYAASSLQSGVPSRFSGSGSGTDFTLTISSLQPEDFATYFCQQCYTTSSFGQGTKVEIK
# B3: C2020 (protein)
# chain 1: EVQLVESGGGLVQPGGSLRLSCAASGLTVSSNYMSWVRQAPGKGLEWVSVIYSGGSTYYADSVKGRFTISRDNSKNTLYLQMNSLRAEDTAVYYCARETYAFDIWGQGTMVTVSS
# chain 2: DIQLTQSPSFLSASVGDRVTITCRASQGISSYLAWYQQKPGKAPKLLIYAASTLQSGVPSRFSGSGSGTEFTLTISSLQPEDFATYYCQQLNSYSYTFGQGTKLEIK
# B4: C1296 (protein)
# chain 1: QVQLVQSGAEVKKPGASVKVSCKASAYTFTRYYMHWVRQAPGQGLEWMGIINPGGGSRSYAQKFQGRVTMTGDTSTSTVYMELRSLRSEDTAVYYCARGALVPDTAFGGDYWGQGTLVTVSS
# chain 2: IRMTQSPSSLSASVGDRVTITCRASQGISNYLAWYQQKPGKVPNLLIYAASTLQSGVPSRFSGSGSGTDFTLTISSLQPEDVATYYCQKYNRAPFTFGPGTKVDIK
# B5: C2019 (protein)
# chain 1: EVQLVESGGGLIQPGGSLRLSCAASGFIVSSNYMSWVRQAPGKGLEWVSVIYSGGSTYYADSVKGRFTISRDNSKNTLYLQMNSLRAEDTAVYYCARDYGDFYFDYWGQGTLVTVSS
# chain 2: not shown
# B6: C1398 (protein)
# chain 1: B5 chain 1 with F27I, I28T, Y58F, G100M, D101L, F102R, Y103G, F104G, D105E, Y106D
# chain 2: IRMTQSPSSLSASVGDRVTITCQASQDIRYFLNWYQQKPGKAPKLLIYDASNLETGVPSRFSGSGSGTDFTFTISSLQPEDIATYYCHQYDNLPRTYGQGTKLEIK
# B7: C1391 (protein)
# chain 1: EVQLVESGGGLVQPGRSLRLSCAASGFTFDDYAIHWVRQAPGKGLEWVSGMSWNSGTIGYADSVKGRFIISRDNAKNSLYLQMNSLRAEDTALYYCAKARLTGTNPWKFGEDAMDVWGQGTTVTVSS
# chain 2: DIVMTQSPDSLAVSLGERATINCKSSQSVLYSSNNKNYLAWYQQKPGQPPNLLIYWASTRESGVPDRFSGSGSGTDFTLTISSLQAEDVAVYYCQQYYNTPLTFGGGTKVEIK
# B8: C1300 (protein)
# chain 1: EVQLVESGGGLVQPGRSLRLSCAASGFTFEDYGMHWVRQAPGKGLEWVSGISWNGGIIGYADSVKGRFTISRDNDKNSLYVQMIRLRAEDTALYYCAKSIRQWQVRGAEYYFDSWGQGTLVTVSS
# chain 2: QSALTQPASVSGSPGQSITISCTGTSSDVGAYNYVSWYQHHPGKAPKLMIYEVSNRPSGVSNRFSGSKSGNTASLTISGLQAEDESDYYCTSYTSSSTVLFGGGTKLTVL
# B9: C1389 (protein)
# chain 1: QVQLVQSGAEVKKPGSSVKVSCKASGYTFSSFVISWVRQAPGQGLEWMGGIIPDFGTANYAETFQDRVTITADESTSTSYMRLSSLRSDDTAVYYCARGLIPAAWYFDRWGQGTLVTVSS
# chain 2: EIVMTQSPATLSVSPGERATLSCRASQSVSGNLVWYQQKPGQAPRLLIYGASTRATGIPARFSGSGSGTEFTLTISSLQSEDFAVYYCQHYDNWFLTFGPGTKVDIK
# B10: C1397 (protein)
# chain 1: QVQLQESGPGLVKPSETLSLTCTVSGASISSYYWSWIRQPPGKGLECIGYIYYSGSTNYNPSLKSRVTISVDTSKNQFSLKLSSVTAADTAVYYCARQRRSTSWSLLDYWGQGTLVTVSS
# chain 2: B9 chain 2 with G31S, V34A, H90Q, D92N, F95P, L96E, P100Q, D105E
# B11: C1393 (protein)
# chain 1: EVQLVESGGGLVQPGRSLRLSCAASGFTFDDYAMHWVRQAPGKGLEWVSGISWNSGSIGYADSVKGRFTISRDNAKNSLYLQMNSLRLEDTALYYCAKNVYDSSGFYLDYWGQGTLVTVSS
# chain 2: SYELTQPPSVSVSPGQTATITCSGDKLGHKYTSWYQQKPGQSPVLVIYQDDKRPSGIPERFSGSNSGNTATLTISGTQAMDEADYYCQAWDSITLIFGGGTKLTVL
# B12: C1297 (protein)
# chain 1: EVQLVQSGAEVKKPGESLRISCKGSGYSFTNYWISWVCQMPGKGLEWMGRIDPSDSYTNYSPSFQGHVTISVDKSISTAYLQWSSLKASDTAIYYCARHDRSPGIQYYDILTDNWRDRDWFDPWGQGTLVTVSS
# chain 2: SYELTQPPSVSVAPGKTARITCGGNNIGSKSVHWYQQKPGQAPVLVVYDDSDRPSGIPERFSGSNSGNTATLTISRVEAGDEADYYCQVWDSSSDHRGVFGGGTKLTVL
# B13: C1299 (protein)
# chain 1: QVQLVQSGAEVKKPGSSVKVSCKASGGTFSRYAISWVRQAPGQGLEWMGGIITLLGTANYAQKFQGRVTITADESTSTAYMELSSLRSEDTAVYYCARDVVPAAIAVGGYFDYWGQGTLVTVSS
# chain 2: B12 chain 2 with K16Q, T21P, D91G, S92G, S93I, R97H, G98V
# B14: C1399 (protein)
# chain 1: QLQLQESGPGLVKPSETLSLTCTVSGGSISSSSYYWGWIRQPPGKGLEWIGSIYYTGITYYNPSLKSRATIYVDTSKNQFSLRLSSVTAADTAVFYCARHSRMYSDAYYTHSFDSWGQGTLVTVSS
# chain 2: QSALTQPASVSGSPGQSITISCTGTSSDVGSYDLVSWYQQHPGKAPKLMIYEVIKRPSGVSIRFSGSKSGNTASLTISGLQAEDEADYYCCSYAGNYVFGTGTKLIVL
# B15: C1394 (protein)
# chain 1: VQLVESGGGVVQPGKSLRLSCAAPGFPFSSYAMHWVRQAPGKGLEWVAVISYDGTQKYYADSLKGRFTISRDNSKNTFYLQMNRLRPEDTAVYYCAKGSGTYYLMQVDYWGQGTLVTVSS
# chain 2: DIVMTQSPDSLAVSLGERATINCKSSQSVLYSSNNKNYLAWYQQKPGQPPKLLIYWASTRESGVPDRFSGSGSGTDFTLTISSLQAEDVAVYYCQQYYSTPTFGGGTKVEIK
# B16: C1301 (protein)
# chain 1: QVQLVESGGGVVQPGRSLRLSCAASGFSFSNYGMHWVRQAPGMGLEWVALIWYDGSNKYYGDSVRGRFAISRDNSKNTLYLQMNSLRAEDTAMYYCARDEEPENMATRGNLDYWGQGTLVTVSS
# chain 2: QSVLTQPPSASGTPGQRVTISCSGRNSNIGSNYVYWYQQLPGAAPKLLIYRDNQRPSGVPDRFSGSKSGTSASLAISGLRTEDEAAYYCASWDDRLSGPYVFGPGTEVTVL
# B17: C1294 (protein)
# chain 1: QVQLQESGPGLVKPSETLSLTCTVSGGSITNYYWSWIRQPPGKGLEWIGYISYSGSIKYNPSLKSRVTISVDTSKIQFSLKLRSVTAADTAVYYCARARTYYYDSSGYPATSFDHWGQGTLVTVSS
# chain 2: QTVVTQEPSLTVSPGGTVTLTCASSTGAVTSGYCPNWFQQKPGQAPRALIYSTSNKHSWTPARFSGSLLGGKAALTLSGVQPEDEAEYYCLLYYGGTWVFGGGTKLTVL
# What was measured:
# [1] = target: SARS-CoV-2 Wuhan-Hu-1 spike pseudovirus; assay: pseudovirus neutralization IC50; higher = weaker neutralization
# Method: (§1)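 Single-round luciferase reporter pseudovirus mixed with antibody dilutions and put on 293T-ACE2 cells for 48 h; signal relative to no-antibody wells, four-parameter fit.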
# [2] = target: SARS-CoV-2 Wuhan-Hu-1 spike pseudovirus; assay: pseudovirus neutralization IC90; higher = weaker neutralization
# Method: as §1
# [3] = target: SARS-CoV-2 Wuhan-Hu-1 spike receptor-binding domain; assay: ELISA binding EC50; higher = weaker binding; ELISA of recombinant human antibody on coated antigen, from 10 µg/ml in fourfold dilutions; four-parameter fit.
binder,measurement,setting,value
B1,pseudovirus neutralization IC50,[1],> 1 µg/mL
same,pseudovirus neutralization IC90,[2],> 1 µg/mL
same,ELISA binding EC50,[3],> 10 µg/mL
B2,pseudovirus neutralization IC50,[1],> 1 µg/mL
same,pseudovirus neutralization IC90,[2],> 1 µg/mL
same,ELISA binding EC50,[3],0.00171 µg/mL
B3,pseudovirus neutralization IC50,[1],0.042 µg/mL
same,pseudovirus neutralization IC90,[2],0.215 µg/mL
same,ELISA binding EC50,[3],0.00215 µg/mL
B4,pseudovirus neutralization IC50,[1],> 1 µg/mL
same,pseudovirus neutralization IC90,[2],> 1 µg/mL
same,ELISA binding EC50,[3],0.00281 µg/mL
B5,pseudovirus neutralization IC50,[1],0.127 µg/mL
same,pseudovirus neutralization IC90,[2],0.809 µg/mL
same,ELISA binding EC50,[3],0.00279 µg/mL
B6,pseudovirus neutralization IC50,[1],0.00647 µg/mL
same,pseudovirus neutralization IC90,[2],0.0254 µg/mL
same,ELISA binding EC50,[3],0.00132 µg/mL
B7,pseudovirus neutralization IC50,[1],0.0823 µg/mL
same,pseudovirus neutralization IC90,[2],0.905 µg/mL
same,ELISA binding EC50,[3],0.00183 µg/mL
B8,pseudovirus neutralization IC50,[1],0.0254 µg/mL
same,pseudovirus neutralization IC90,[2],0.613 µg/mL
same,ELISA binding EC50,[3],0.00157 µg/mL
B9,pseudovirus neutralization IC50,[1],0.0789 µg/mL
same,pseudovirus neutralization IC90,[2],0.407 µg/mL
same,ELISA binding EC50,[3],0.00185 µg/mL
B10,pseudovirus neutralization IC50,[1],> 1 µg/mL
same,pseudovirus neutralization IC90,[2],> 1 µg/mL
same,ELISA binding EC50,[3],0.291 µg/mL
B11,pseudovirus neutralization IC50,[1],0.0326 µg/mL
same,pseudovirus neutralization IC90,[2],0.185 µg/mL
same,ELISA binding EC50,[3],0.00484 µg/mL
B12,pseudovirus neutralization IC50,[1],> 1 µg/mL
same,pseudovirus neutralization IC90,[2],> 1 µg/mL
same,ELISA binding EC50,[3],0.0798 µg/mL
B13,pseudovirus neutralization IC50,[1],> 1 µg/mL
same,pseudovirus neutralization IC90,[2],> 1 µg/mL
same,ELISA binding EC50,[3],0.00241 µg/mL
B14,pseudovirus neutralization IC50,[1],> 1 µg/mL
same,pseudovirus neutralization IC90,[2],> 1 µg/mL
same,ELISA binding EC50,[3],0.00355 µg/mL
B15,pseudovirus neutralization IC50,[1],> 1 µg/mL
same,pseudovirus neutralization IC90,[2],> 1 µg/mL
same,ELISA binding EC50,[3],> 10 µg/mL
B16,pseudovirus neutralization IC50,[1],0.115 µg/mL
same,pseudovirus neutralization IC90,[2],0.857 µg/mL
same,ELISA binding EC50,[3],0.00137 µg/mL
B17,pseudovirus neutralization IC50,[1],> 1 µg/mL
same,pseudovirus neutralization IC90,[2],> 1 µg/mL
same,ELISA binding EC50,[3],0.0192 µg/mL
